Scores with a large standard error are left out. Not listed are two conditions whose scores span a narrow range. Names with del lack the residues named; names with ins carry added residues between the positions named. For part of these data: The concentration of ogerin is not given here.

Data on 32 variants can be found in the GPR68 mutational scans of Howard et al. (2025).

B1: GPR68, Q15743 (parent)
chain: MGNITADNSSMSCTIDHTIHQTLAPVVYVTVLVVGFPANCLSLYFGYLQIKARNELGVYLCNLTVADLFYICSLPFWLQYVLQHDNWSHGDLSCQVCGILLYENIYISVGFLCCISVDRYLAVAHPFRFHQFRTLKAAVGVSVVIWAKELLTSIYFLMHEEVIEDENQHRVCFEHYPIQAWQRAINYYRFLVGFLFPICLLLASYQGILRAVRRSHGTQKSRKDQIQRLVLSTVVIFLACFLPYHVLLLVRSVWEASCDFAKGVFNAYHFSLLLTSFNCVADPVLYCFVSETTHRDLARLRGACLAFLTCSRTGRAREAYPLGAPEASGKSGAQGEEPELLTKLHPAFQTPNSPGSGGFPTGRLA

The variants in series [1] derive from B1. The series is described as follows: cAMP reporter score (Enrich2 score, wild type = 0); higher = more signal; HEK293T, FACS bins.
In series [2] the parent is B1. The series is described as follows: surface expression score (Enrich2 score, wild type = 0); higher = more signal; HEK293T, FACS bins.

As for S311G, the cAMP reporter score in series [1] (pH 5.5) is 0.157; in series [1] (pH 6) it was 1.29; in series [1] (pH 6, modulator: ogerin) it was -0.165. Moreover, the surface expression score in series [2] is 1.01.

Regarding S311Y, the cAMP reporter score is 0.185 in series [1] (pH 5.5); -0.338 in series [1] (pH 6); 0.842 in series [1] (pH 6, modulator: ogerin); 0.623 in series [1] (pH 6.5, modulator: ogerin). In addition, in series [2], the surface expression score is -0.288.

On to S311I, for which the cAMP reporter score was 1.58 in series [1] (pH 5.5) and -2.15 in series [1] (pH 6.5, modulator: ogerin). Besides, the surface expression score in series [2] amounted to 0.64.

For S311K, the cAMP reporter score in series [1] (pH 5.5) was found to be 0.872; in series [1] (pH 6), 0.33; in series [1] (pH 6, modulator: ogerin), 0.34; in series [1] (pH 6.5, modulator: ogerin) it was 0.852. The surface expression score in series [2] is 0.425.

With S311H, the cAMP reporter score is -0.126 in series [1] (pH 5.5); -0.453 in series [1] (pH 6); 0.139 in series [1] (pH 6, modulator: ogerin); -0.3 in series [1] (pH 6.5, modulator: ogerin). In addition, the surface expression score in series [2] is -0.181.

For S311E, the cAMP reporter score was 0.396 in series [1] (pH 5.5); -0.632 in series [1] (pH 6); 0.291 in series [1] (pH 6, modulator: ogerin); 0.485 in series [1] (pH 6.5, modulator: ogerin). Besides, in series [2], the surface expression score is -0.028.

As for S311L, the cAMP reporter score in series [1] (pH 5.5) was found to be 1.79; in series [1] (pH 6, modulator: ogerin), 0.576; in series [1] (pH 6.5, modulator: ogerin), 1.3. Also, the surface expression score in series [2] worked out at 0.976.

In the case of S311V, the cAMP reporter score in series [1] (pH 5.5) is 0.803; in series [1] (pH 6), 0.771; in series [1] (pH 6, modulator: ogerin) it was 0.523; in series [1] (pH 6.5, modulator: ogerin), -0.1. For the same variant, the surface expression score in series [2] was found to be 0.791.

Take S311D: the cAMP reporter score turned out to be 1.01 in series [1] (pH 5.5); 2.23 in series [1] (pH 6); 1.08 in series [1] (pH 6, modulator: ogerin); 1.41 in series [1] (pH 6.5, modulator: ogerin). Also, in series [2], the surface expression score was 0.701.

As for S311R, the cAMP reporter score was 1.39 in series [1] (pH 5.5); 1.08 in series [1] (pH 6, modulator: ogerin); 1.49 in series [1] (pH 6.5, modulator: ogerin). In addition, the surface expression score in series [2] stood at 1.07.

Turning to S311T, the cAMP reporter score in series [1] (pH 5.5) was 0.999; in series [1] (pH 6), 0.55; in series [1] (pH 6, modulator: ogerin), 0.987; in series [1] (pH 6.5, modulator: ogerin), 0.425. Besides, the surface expression score in series [2] came out at 0.182.

As for S311C, the cAMP reporter score in series [1] (pH 5.5) was 0.737; in series [1] (pH 6), 0.795; in series [1] (pH 6, modulator: ogerin), 0.325; in series [1] (pH 6.5, modulator: ogerin), -0.155. In addition, the surface expression score in series [2] amounted to 0.315.

For S311N, the cAMP reporter score was 0.334 in series [1] (pH 5.5); -0.173 in series [1] (pH 6); 0.68 in series [1] (pH 6, modulator: ogerin); -0.888 in series [1] (pH 6.5, modulator: ogerin). Further, the surface expression score in series [2] turned out to be 0.882.

As to S311P, the cAMP reporter score in series [1] (pH 5.5) is 0.908; in series [1] (pH 6), 1.79; in series [1] (pH 6, modulator: ogerin), 0.955; in series [1] (pH 6.5, modulator: ogerin), 1.55. For the same variant, the surface expression score in series [2] came to 0.503.

Turning to S311Q, the cAMP reporter score in series [1] (pH 5.5) was 0.46; in series [1] (pH 6), 0.561; in series [1] (pH 6, modulator: ogerin), 0.443; in series [1] (pH 6.5, modulator: ogerin), -0.49. Also, the surface expression score in series [2] stood at 0.788.

For the variant S311F, the cAMP reporter score in series [1] (pH 5.5) was 0.343; in series [1] (pH 6, modulator: ogerin), 1.11; in series [1] (pH 6.5, modulator: ogerin), -0.114. The surface expression score in series [2] is 0.894.

As to S311M, the cAMP reporter score in series [1] (pH 5.5) was -0.052; in series [1] (pH 6), 0.138; in series [1] (pH 6, modulator: ogerin), -0.157; in series [1] (pH 6.5, modulator: ogerin) it was -0.289. For the same variant, the surface expression score in series [2] was -0.343.

With L308_T309insG, the cAMP reporter score in series [1] (pH 5.5) is 0.691; in series [1] (pH 6), 2.05; in series [1] (pH 6, modulator: ogerin), 0.03; in series [1] (pH 6.5, modulator: ogerin), 0.91. The surface expression score in series [2] is 0.578.

Take F307_L308insGSG: the cAMP reporter score in series [1] (pH 5.5) is 0.267; in series [1] (pH 6), -1.12; in series [1] (pH 6, modulator: ogerin) it was -0.409; in series [1] (pH 6.5, modulator: ogerin) it was -0.161. Besides, in series [2], the surface expression score is -0.75.

On to R317del, for which the cAMP reporter score in series [1] (pH 5.5) is 0.877; in series [1] (pH 6), -0.202; in series [1] (pH 6, modulator: ogerin), 0.736; in series [1] (pH 6.5, modulator: ogerin) it was 0.692. In series [2], the surface expression score stood at 0.644.

Regarding R315_A316del, the cAMP reporter score in series [1] (pH 5.5) was 0.126; in series [1] (pH 6), -1.21; in series [1] (pH 6, modulator: ogerin), -0.168; in series [1] (pH 6.5, modulator: ogerin), -0.161. The surface expression score in series [2] is -0.556.

With R312Y, the cAMP reporter score is 1.08 in series [1] (pH 5.5); 1.27 in series [1] (pH 6, modulator: ogerin); 0.225 in series [1] (pH 6.5, modulator: ogerin). Also, the surface expression score in series [2] turned out to be 0.963.

As for R312F, the cAMP reporter score was -0.075 in series [1] (pH 5.5); -0.37 in series [1] (pH 6); -0.064 in series [1] (pH 6, modulator: ogerin); -0.507 in series [1] (pH 6.5, modulator: ogerin). Also, in series [2], the surface expression score is -0.047.

R312H: the cAMP reporter score is 0.399 in series [1] (pH 5.5); 0.775 in series [1] (pH 6); 0.431 in series [1] (pH 6, modulator: ogerin); -0.092 in series [1] (pH 6.5, modulator: ogerin). In series [2], the surface expression score was -0.031.

In the case of R312E, the cAMP reporter score in series [1] (pH 5.5) came to 0.31; in series [1] (pH 6, modulator: ogerin), 0.605; in series [1] (pH 6.5, modulator: ogerin), 0.298. In addition, the surface expression score in series [2] was -0.826.

Consider R312N, for which the cAMP reporter score in series [1] (pH 5.5) was 0.182; in series [1] (pH 6) it was -0.887; in series [1] (pH 6, modulator: ogerin), 0.581; in series [1] (pH 6.5, modulator: ogerin), 0.342. The surface expression score in series [2] was -0.454.

In the case of R312A, the cAMP reporter score was -1.33 in series [1] (pH 5.5); 0.514 in series [1] (pH 6, modulator: ogerin); 0.999 in series [1] (pH 6.5, modulator: ogerin). The surface expression score in series [2] was -0.981.

Take R312C: the cAMP reporter score in series [1] (pH 5.5) was 0.376; in series [1] (pH 6, modulator: ogerin), 0.351; in series [1] (pH 6.5, modulator: ogerin) it was -0.239. The surface expression score in series [2] is -0.104.

In the case of R312L, the cAMP reporter score was -0.52 in series [1] (pH 5.5); -0.455 in series [1] (pH 6); -0.408 in series [1] (pH 6, modulator: ogerin); -1.44 in series [1] (pH 6.5, modulator: ogerin). Besides, the surface expression score in series [2] was -1.21.

On to R312W, for which the cAMP reporter score in series [1] (pH 5.5) is -0.056; in series [1] (pH 6), 0.058; in series [1] (pH 6, modulator: ogerin), -0.442; in series [1] (pH 6.5, modulator: ogerin) it was -0.658. In addition, in series [2], the surface expression score is 0.124.

Regarding R312T, the cAMP reporter score in series [1] (pH 5.5) was 0.367; in series [1] (pH 6) it was 0.302; in series [1] (pH 6, modulator: ogerin), 0.338; in series [1] (pH 6.5, modulator: ogerin), -0.473. In addition, the surface expression score in series [2] turned out to be 0.987.

With R312M, the cAMP reporter score in series [1] (pH 5.5) is 0.115; in series [1] (pH 6) it was -0.591; in series [1] (pH 6, modulator: ogerin), -0.055; in series [1] (pH 6.5, modulator: ogerin) it was -0.462. In addition, in series [2], the surface expression score was -0.317.
